# The other results are listed elsewhere or left out. The energies were worked out here from pooled read counts, against the library average; single values are noisy.
# Target: T1, Pho4 (S. cerevisiae) (UniProt P07270)
# T1 sequence: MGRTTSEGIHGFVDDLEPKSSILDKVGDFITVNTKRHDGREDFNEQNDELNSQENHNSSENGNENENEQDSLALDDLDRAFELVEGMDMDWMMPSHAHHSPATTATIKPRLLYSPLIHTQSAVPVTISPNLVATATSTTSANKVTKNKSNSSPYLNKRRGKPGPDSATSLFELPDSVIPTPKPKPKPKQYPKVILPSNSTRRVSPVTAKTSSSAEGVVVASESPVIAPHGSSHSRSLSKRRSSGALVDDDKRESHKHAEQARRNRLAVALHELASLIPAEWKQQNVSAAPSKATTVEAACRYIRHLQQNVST
# Assay: relative binding free energy (BET-seq); higher = weaker binding
# Details: reference: library average
row,Sequence,relative binding free energy
1,GGTGTCACGTGGAGTT,0.18 kcal/mol
2,ATGCTCACGTGGATGG,0.15 kcal/mol
3,TTTTACACGTGGAAAG,0.08 kcal/mol
4,TGAGACACGTGTTTGT,0.07 kcal/mol
5,TTGAACACGTGTACGT,0.15 kcal/mol
6,GATTACACGTGATTGA,0.27 kcal/mol
7,AGCGTCACGTGGATTG,0.03 kcal/mol
8,CGTAGCACGTGTTTAT,-0.16 kcal/mol
9,AGCATCACGTGATTTG,0.35 kcal/mol
10,TTTGGCACGTGGCTCG,-0.07 kcal/mol
11,GTTTGCACGTGTGGGC,0.18 kcal/mol
12,GGCAACACGTGAGGTA,0.45 kcal/mol
13,AAGTACACGTGTGGGG,0.18 kcal/mol
14,GCTTGCACGTGATGGT,0.13 kcal/mol
15,TTGAACACGTGTGGTT,0.04 kcal/mol
16,TCTTTCACGTGTATAT,0.18 kcal/mol
17,TGGTTCACGTGACAAG,0.26 kcal/mol
18,CATGTCACGTGGTTCG,0.01 kcal/mol
19,CGGGACACGTGCGTGT,-0.12 kcal/mol
20,CTGTGCACGTGGGGCG,-0.24 kcal/mol
21,TCTGCCACGTGGTTTA,-0.04 kcal/mol
22,TTCGGCACGTGTAGTG,0.09 kcal/mol
23,TGCTACACGTGTTTAT,0.12 kcal/mol
24,CTGGGCACGTGTATGA,-0.06 kcal/mol
25,TTTACCACGTGATAGG,0.15 kcal/mol

row,Sequence,relative binding free energy
1,GATTGCACGTGTTAAT,0.1 kcal/mol
2,TATGGCACGTGACTGG,0.05 kcal/mol
3,AAGGACACGTGGGATG,-0.1 kcal/mol
4,GGGCTCACGTGTGCGG,0.32 kcal/mol
5,GAGGTCACGTGTGTAC,0.23 kcal/mol
6,TATCTCACGTGGTAGT,0.2 kcal/mol
7,CGGGACACGTGATATG,0.17 kcal/mol
8,AATATCACGTGGAGGA,0.19 kcal/mol
9,GTACCCACGTGTTGGG,-0.03 kcal/mol
10,GATAACACGTGGTGTT,-0.04 kcal/mol
11,CATGTCACGTGGTGGG,0.03 kcal/mol
12,TAGTTCACGTGATGTA,0.17 kcal/mol
13,GATTTCACGTGAATGT,0.27 kcal/mol
14,TTTGGCACGTGTATAG,-0.03 kcal/mol
15,GAGGGCACGTGAGATG,0.23 kcal/mol
16,TAGGGCACGTGGCTGC,-0.16 kcal/mol
17,GGTCGCACGTGTAAGG,0.01 kcal/mol
18,GTAGACACGTGGGAAG,-0.07 kcal/mol
19,TTCTTCACGTGTGTGT,0.28 kcal/mol
20,GCAGTCACGTGTTAGG,0.03 kcal/mol
21,AGATACACGTGAGGTT,0.42 kcal/mol
22,TGGTACACGTGCGTTT,-0.01 kcal/mol
23,TATTACACGTGTTCAT,-0.05 kcal/mol
24,TATCACACGTGTGGAG,0.22 kcal/mol
25,GTGTTCACGTGTTAGC,0.2 kcal/mol

row,Sequence,relative binding free energy
1,TGGCGCACGTGAGGCG,0.12 kcal/mol
2,GGGCCCACGTGGGCGT,-0.25 kcal/mol
3,GGCAACACGTGTTGGT,0.02 kcal/mol
4,GGTATCACGTGAGGGC,0.28 kcal/mol
5,GGAAGCACGTGAGTGG,0.21 kcal/mol
6,TGATTCACGTGTTGCG,0.19 kcal/mol
7,TTGGCCACGTGTATTT,-0.02 kcal/mol
8,TTCAGCACGTGGCTGT,-0.07 kcal/mol
9,CGGTTCACGTGGTGAA,-0.02 kcal/mol
10,GTTCACACGTGGTGTT,0.07 kcal/mol
11,GTCGTCACGTGGTGGT,0.15 kcal/mol
12,TGTTTCACGTGCTTGG,0.24 kcal/mol
13,TCAGCCACGTGTGTGG,0 kcal/mol
14,GGATCCACGTGGATGG,0.03 kcal/mol
15,AGGGGCACGTGCGGGC,-0.17 kcal/mol
16,TAAGTCACGTGTGGCG,0.02 kcal/mol
17,CGAGTCACGTGGCTGT,0.01 kcal/mol
18,TAGGCCACGTGGTTGG,-0.1 kcal/mol
19,TTGTACACGTGGCGCG,-0.08 kcal/mol
20,TTATTCACGTGCTGTG,0.26 kcal/mol
21,AACTGCACGTGTGAGG,0.15 kcal/mol
22,AGAGTCACGTGCTTTT,0.04 kcal/mol
23,GTGCGCACGTGTGTCT,-0.07 kcal/mol
24,AGTTTCACGTGTACGG,0.31 kcal/mol
25,ATAGCCACGTGTTATT,0 kcal/mol

row,Sequence,relative binding free energy
1,AGGAGCACGTGGGCTT,-0.22 kcal/mol
2,GAGTTCACGTGGGGTA,0.12 kcal/mol
3,TATAGCACGTGCTTTT,-0.06 kcal/mol
4,ATTGTCACGTGAATAA,0.33 kcal/mol
5,TTAGTCACGTGCATTG,0.08 kcal/mol
6,GTGCGCACGTGCAAGG,-0.02 kcal/mol
7,TATGCCACGTGTGGAT,-0.04 kcal/mol
8,TATTTCACGTGTTAAC,0.26 kcal/mol
9,TGCATCACGTGTGTTA,0.13 kcal/mol
10,TGAATCACGTGTGGGC,0.2 kcal/mol
11,TTTTTCACGTGGGTTT,0.21 kcal/mol
12,AGGCACACGTGGTATG,-0.15 kcal/mol
13,ACGGCCACGTGTGGGA,-0.02 kcal/mol
14,AGGGTCACGTGTATGC,0.12 kcal/mol
15,AGGTACACGTGATGTC,0.33 kcal/mol
16,AGCGGCACGTGGTTTG,-0.24 kcal/mol
17,TATTGCACGTGAGTGT,0.15 kcal/mol
18,TGGGGCACGTGAGTGC,0.05 kcal/mol
19,TGGTTCACGTGCAGGC,0.23 kcal/mol
20,TATAACACGTGGAGGA,-0.02 kcal/mol
21,GGTAACACGTGTGGGG,0.16 kcal/mol
22,TTGGGCACGTGAGGCG,0.09 kcal/mol
23,AGTTGCACGTGCTTTT,0.06 kcal/mol
24,TGAGTCACGTGTAGTC,0.22 kcal/mol
25,TGGTGCACGTGTTGCC,-0.07 kcal/mol

row,Sequence,relative binding free energy
1,CTTTACACGTGCGGTT,0.18 kcal/mol
2,TGGTGCACGTGGAAGG,0.02 kcal/mol
3,ATTTGCACGTGCTGGA,0.02 kcal/mol
4,TCATACACGTGGTGGT,-0.14 kcal/mol
5,ATAGGCACGTGCGTTT,-0.23 kcal/mol
6,GACGGCACGTGTTGTT,0.1 kcal/mol
7,AGGCTCACGTGCGGGT,0.03 kcal/mol
8,TTTTGCACGTGGTGCT,-0.01 kcal/mol
9,TTGGTCACGTGAATGC,0.29 kcal/mol
10,GAGAGCACGTGGGGTC,-0.21 kcal/mol
11,ATGGACACGTGGAGGC,-0.07 kcal/mol
12,TGATACACGTGATGCT,0.12 kcal/mol
13,GAGGTCACGTGAGTCT,0.44 kcal/mol
14,TGAGTCACGTGTATGT,0.14 kcal/mol
15,ATATGCACGTGTGGCT,0.09 kcal/mol
16,TCGTACACGTGTGGTG,0.14 kcal/mol
17,GAATGCACGTGGGTTG,-0.07 kcal/mol
18,AGTATCACGTGATATT,0.18 kcal/mol
19,CAAGTCACGTGTATGT,0.25 kcal/mol
20,GGATGCACGTGTAAGA,0.23 kcal/mol
21,TTTATCACGTGGATTC,0.24 kcal/mol
22,AGTCACACGTGGGAGT,0.05 kcal/mol
23,TTATGCACGTGAGTTG,0.18 kcal/mol
24,AATCTCACGTGCGGGG,0.22 kcal/mol
25,GGGGTCACGTGAGATA,0.3 kcal/mol

row,Sequence,relative binding free energy
1,GGTCTCACGTGGTTGT,0.1 kcal/mol
2,GCTTCCACGTGTGGGA,0.27 kcal/mol
3,GTTGGCACGTGGTAAA,-0.07 kcal/mol
4,GTCTTCACGTGAAAGG,0.38 kcal/mol
5,GTGTTCACGTGGAGGG,0.24 kcal/mol
6,TAAAGCACGTGTATTT,-0.05 kcal/mol
7,ATCGGCACGTGAGGGT,0.11 kcal/mol
8,GATTGCACGTGCGGTC,0.08 kcal/mol
9,CTAATCACGTGGGAGT,0.05 kcal/mol
10,AGGGGCACGTGCGCGG,-0.33 kcal/mol
11,AATGACACGTGCGGGG,0.02 kcal/mol
12,TCGAGCACGTGTAGGG,-0.05 kcal/mol
13,ATTGTCACGTGCCGGG,0.11 kcal/mol
14,GCGGGCACGTGCGTGG,-0.19 kcal/mol
15,AAAGTCACGTGGTTAG,-0.04 kcal/mol
16,ATATACACGTGGGTAT,-0.15 kcal/mol
17,TGGTTCACGTGTTGGG,0.35 kcal/mol
18,AATAACACGTGTATGG,-0.11 kcal/mol
19,GAATACACGTGGAGGG,0.18 kcal/mol
20,GTGTTCACGTGCAAGA,0.32 kcal/mol
21,AGGGCCACGTGGGGCG,-0.31 kcal/mol
